Data taken from US11178870B2 (priority 2017, dated 2021).

How the values were obtained:
Type in all cases: in vivo
Alternaia brassicicola = experiment: Test Example C: Alternaria sooty spot on cabbage; conditions: for control value, Test C (Alternaria sooty spot on cabbage): Table 7, Test C; for Test C control value (Alternaria sooty spot on cabbage): class of control value, Table 7; for Test C control value: Alternaria sooty spot on cabbage
Plasmopara viticola = experiment: Test Example G: Downy mildew on vine; conditions: for control value, Test G (downy mildew on vine): 250 ppm sprayed (2.5 ml/pot) before inoculation, assessed 7 to 10 days after inoculation; for Test G control value (downy mildew on vine): 250 ppm spray, investigated 7 to 10 days after inoculation; for Test G control value (downy mildew on vine) / Test G control value: 2.5 ml/pot; for Test G control value: Downy mildew on vine, 250 ppm sprayed, 7 to 10 days after inoculation
Puccinia recondita = experiment: Test Example E: Brown rust on wheat; conditions: for control value, Test E (brown rust on wheat): Table 7, Test E; for Test E control value (brown rust on wheat): class of control value, Table 7
[1] = tested on: Blumeria graminis f. sp. hordei; experiment: Test Example D: Powdery mildew on barley; conditions: for control value, Test D (powdery mildew on barley): Table 7, Test D; for Test D control value (powdery mildew on barley): class of control value, Table 7
Botrytis cinerea = experiment: Test Example B: Gray mold on tomato; conditions: Table 7, Test B

CCn1c(-c2ccc(NC)cc2F)c(-n2ncc(C)c2Cl)cc(Br)c1=O [Compound 368]
control value, Test C (Alternaria sooty spot on cabbage) (Alternaia brassicicola): H (H shows the control value more than 50%)
control value, Test G (downy mildew on vine) (Plasmopara viticola): H (H shows the control value more than 50%)

Cc1cnn(-c2cc(Br)c(=O)n(CC(F)F)c2-c2ccccc2C)c1 [Compound 304]
control value, Test E (brown rust on wheat) (Puccinia recondita): L (L shows the control value of 50% or less)
control value, Test D (powdery mildew on barley) [1]: H (H shows the control value more than 50%)
control value, Test C (Alternaria sooty spot on cabbage) (Alternaia brassicicola): H (H shows the control value more than 50%)
control value, Test G (downy mildew on vine) (Plasmopara viticola): L (L shows the control value of 50% or less)

O=c1ccc(-n2cc(F)cn2)c(-c2ccc(F)cc2Cl)n1CC(F)F [Compound 425]
Test E control value (brown rust on wheat) (Puccinia recondita): H (H shows the control value more than 50%)
Test D control value (powdery mildew on barley) [1]: H (H shows the control value more than 50%)
Test C control value (Alternaria sooty spot on cabbage) (Alternaia brassicicola): H (H shows the control value more than 50%)
Test G control value (downy mildew on vine) (Plasmopara viticola): L (L shows the control value of 50% or less)

CCn1c(-c2c(F)cccc2Cl)c(-n2cc(Cl)cn2)cc(Cl)c1=O [Compound 198]
control value, Test E (brown rust on wheat) (Puccinia recondita): L (L shows the control value of 50% or less)
control value, Test C (Alternaria sooty spot on cabbage) (Alternaia brassicicola): H (H shows the control value more than 50%)
control value, Test B (gray mold on tomato) (Botrytis cinerea): L (L shows the control value of 50% or less)
control value, Test G (downy mildew on vine) (Plasmopara viticola): L (L shows the control value of 50% or less)

O=c1c(Cl)cc(-c2sc(Cl)cc2Br)c(-c2c(F)cccc2F)n1CC(F)F [Compound 419]
Test C control value (Alternaria sooty spot on cabbage) (Alternaia brassicicola): H (H shows the control value more than 50%)
Test G control value (downy mildew on vine) (Plasmopara viticola): L (L shows the control value of 50% or less)

CCn1c(-c2c(F)cccc2Br)c(-n2cc(F)cn2)ccc1=O [Compound 360]
control value, Test E (brown rust on wheat) (Puccinia recondita): H (H shows the control value more than 50%)
control value, Test D (powdery mildew on barley) [1]: H (H shows the control value more than 50%)
control value, Test C (Alternaria sooty spot on cabbage) (Alternaia brassicicola): H (H shows the control value more than 50%)
control value, Test G (downy mildew on vine) (Plasmopara viticola): L (L shows the control value of 50% or less)

O=c1c(Cl)cc(-c2sccc2Br)c(-c2c(F)cccc2F)n1CC(F)F [Compound 420]
Test C control value (Alternaria sooty spot on cabbage) (Alternaia brassicicola): H (H shows the control value more than 50%)
Test G control value (downy mildew on vine) (Plasmopara viticola): L (L shows the control value of 50% or less)

Cc1cnn(-c2cc(Br)c(=O)n(C)c2-c2ccc(F)cc2F)c1 [Compound 411]
Test E control value (brown rust on wheat) (Puccinia recondita): H (H shows the control value more than 50%)
Test D control value (powdery mildew on barley) [1]: L (L shows the control value of 50% or less)
Test C control value (Alternaria sooty spot on cabbage) (Alternaia brassicicola): H (H shows the control value more than 50%)
Test G control value (downy mildew on vine) (Plasmopara viticola): L (L shows the control value of 50% or less)

CCn1c(-c2ccc(F)cc2F)c(-c2ccsc2Br)ccc1=O [Compound 500]
Test E control value (brown rust on wheat) (Puccinia recondita): H (H shows the control value more than 50%)
Test D control value (powdery mildew on barley) [1]: L (L shows the control value of 50% or less)
Test C control value (Alternaria sooty spot on cabbage) (Alternaia brassicicola): H (H shows the control value more than 50%)
Test G control value (downy mildew on vine) (Plasmopara viticola): H (H shows the control value more than 50%)

O=c1c(Cl)cc(-c2ccsc2Br)c(-c2c(F)cccc2F)n1CC(F)F [Compound 347]
control value, Test E (brown rust on wheat) (Puccinia recondita): H (H shows the control value more than 50%)
control value, Test D (powdery mildew on barley) [1]: H (H shows the control value more than 50%)
control value, Test C (Alternaria sooty spot on cabbage) (Alternaia brassicicola): H (H shows the control value more than 50%)
control value, Test G (downy mildew on vine) (Plasmopara viticola): H (H shows the control value more than 50%)

CCn1c(-c2ccc(F)cc2Br)c(-n2cc(F)cn2)cc(Cl)c1=O [Compound 352]
control value, Test E (brown rust on wheat) (Puccinia recondita): H (H shows the control value more than 50%)
control value, Test C (Alternaria sooty spot on cabbage) (Alternaia brassicicola): H (H shows the control value more than 50%)
control value, Test B (gray mold on tomato) (Botrytis cinerea): H (H shows the control value more than 50%)
control value, Test G (downy mildew on vine) (Plasmopara viticola): L (L shows the control value of 50% or less)

CCn1c(-c2ccc(OC)cc2Cl)c(-n2cc(F)cn2)cc(Cl)c1=O [Compound 361]
control value, Test E (brown rust on wheat) (Puccinia recondita): H (H shows the control value more than 50%)
control value, Test D (powdery mildew on barley) [1]: H (H shows the control value more than 50%)
control value, Test C (Alternaria sooty spot on cabbage) (Alternaia brassicicola): H (H shows the control value more than 50%)
control value, Test G (downy mildew on vine) (Plasmopara viticola): L (L shows the control value of 50% or less)

CCn1c(-c2ccccc2OC)c(-n2ncc(C)c2Cl)cc(Cl)c1=O [Compound 248]
control value, Test E (brown rust on wheat) (Puccinia recondita): H (H shows the control value more than 50%)
control value, Test C (Alternaria sooty spot on cabbage) (Alternaia brassicicola): H (H shows the control value more than 50%)
control value, Test B (gray mold on tomato) (Botrytis cinerea): H (H shows the control value more than 50%)
control value, Test G (downy mildew on vine) (Plasmopara viticola): L (L shows the control value of 50% or less)

CCn1c(-c2c(F)cccc2F)c(-c2cccnc2Cl)cc(C)c1=O [Compound 66]
Test C control value (Alternaia brassicicola): H (H shows the control value more than 50%)
Test G control value (Plasmopara viticola): H (H shows the control value more than 50%)

CCn1c(-c2ccc(F)cc2F)c(-n2ncc(C)c2Br)cc(Br)c1=O [Compound 270]
control value, Test E (brown rust on wheat) (Puccinia recondita): H (H shows the control value more than 50%)
control value, Test D (powdery mildew on barley) [1]: H (H shows the control value more than 50%)
control value, Test C (Alternaria sooty spot on cabbage) (Alternaia brassicicola): H (H shows the control value more than 50%)
control value, Test G (downy mildew on vine) (Plasmopara viticola): L (L shows the control value of 50% or less)

CCn1c(-c2c(F)cccc2F)c(-c2sc(Br)cc2Br)ccc1=O [Compound 417]
Test C control value (Alternaria sooty spot on cabbage) (Alternaia brassicicola): H (H shows the control value more than 50%)
Test G control value (downy mildew on vine) (Plasmopara viticola): L (L shows the control value of 50% or less)

CCn1c(-c2ccccc2[N+](=O)[O-])c(-n2cc(Cl)cn2)cc(Br)c1=O [Compound 257]
control value, Test E (brown rust on wheat) (Puccinia recondita): L (L shows the control value of 50% or less)
control value, Test C (Alternaria sooty spot on cabbage) (Alternaia brassicicola): L (L shows the control value of 50% or less)
control value, Test B (gray mold on tomato) (Botrytis cinerea): H (H shows the control value more than 50%)
control value, Test G (downy mildew on vine) (Plasmopara viticola): L (L shows the control value of 50% or less)

CCn1c(-c2ccccc2C)c(-n2ncc(C)c2Cl)cc(Br)c1=O [Compound 245]
control value, Test E (brown rust on wheat) (Puccinia recondita): H (H shows the control value more than 50%)
control value, Test C (Alternaria sooty spot on cabbage) (Alternaia brassicicola): H (H shows the control value more than 50%)
control value, Test B (gray mold on tomato) (Botrytis cinerea): H (H shows the control value more than 50%)
control value, Test G (downy mildew on vine) (Plasmopara viticola): L (L shows the control value of 50% or less)

Cc1cnn(-c2cc(Cl)c(=O)n(CC(F)F)c2-c2c(F)cccc2F)c1Cl [Compound 190]
control value, Test E (brown rust on wheat) (Puccinia recondita): H (H shows the control value more than 50%)
control value, Test D (powdery mildew on barley) [1]: H (H shows the control value more than 50%)
control value, Test C (Alternaria sooty spot on cabbage) (Alternaia brassicicola): H (H shows the control value more than 50%)
control value, Test G (downy mildew on vine) (Plasmopara viticola): L (L shows the control value of 50% or less)

CCn1c(-c2ccc(F)cc2Cl)c(-n2cc(C)cn2)cc(Br)c1=O [Compound 335]
control value, Test E (brown rust on wheat) (Puccinia recondita): H (H shows the control value more than 50%)
control value, Test D (powdery mildew on barley) [1]: H (H shows the control value more than 50%)
control value, Test C (Alternaria sooty spot on cabbage) (Alternaia brassicicola): H (H shows the control value more than 50%)
control value, Test G (downy mildew on vine) (Plasmopara viticola): H (H shows the control value more than 50%)

CCn1c(-c2ccc(F)cc2F)c(-n2cc(Cl)cn2)cc(Cl)c1=O [Compound 148]
Test E control value (Puccinia recondita; Brown rust on wheat): H (H shows the control value more than 50%)
Test D control value ([1]; Powdery mildew on barley): H (H shows the control value more than 50%)
Test C control value (Alternaia brassicicola): H (H shows the control value more than 50%)
Test G control value (Plasmopara viticola): L (L shows the control value of 50% or less)

CCn1c(-c2c(F)cccc2F)c(-c2sc(Br)cc2Br)cc(Br)c1=O [Compound 415]
Test C control value (Alternaria sooty spot on cabbage) (Alternaia brassicicola): L (L shows the control value of 50% or less)
Test G control value (downy mildew on vine) (Plasmopara viticola): L (L shows the control value of 50% or less)

CCn1c(-c2ccccc2F)c(-n2cc(C)cn2)cc(Br)c1=O [Compound 260]
control value, Test E (brown rust on wheat) (Puccinia recondita): L (L shows the control value of 50% or less)
control value, Test D (powdery mildew on barley) [1]: L (L shows the control value of 50% or less)
control value, Test C (Alternaria sooty spot on cabbage) (Alternaia brassicicola): H (H shows the control value more than 50%)
control value, Test G (downy mildew on vine) (Plasmopara viticola): L (L shows the control value of 50% or less)

CCn1c(-c2ccc(F)cc2Cl)c(-n2cc(C)cn2)ccc1=O [Compound 334]
control value, Test E (brown rust on wheat) (Puccinia recondita): H (H shows the control value more than 50%)
control value, Test D (powdery mildew on barley) [1]: H (H shows the control value more than 50%)
control value, Test C (Alternaria sooty spot on cabbage) (Alternaia brassicicola): H (H shows the control value more than 50%)
control value, Test G (downy mildew on vine) (Plasmopara viticola): L (L shows the control value of 50% or less)

CCn1c(-c2c(F)cccc2F)c(-c2sccc2Br)ccc1=O [Compound 364]
control value, Test E (brown rust on wheat) (Puccinia recondita): H (H shows the control value more than 50%)
control value, Test D (powdery mildew on barley) [1]: H (H shows the control value more than 50%)
control value, Test C (Alternaria sooty spot on cabbage) (Alternaia brassicicola): H (H shows the control value more than 50%)
control value, Test G (downy mildew on vine) (Plasmopara viticola): H (H shows the control value more than 50%)

CCn1c(-c2ccc(C#N)cc2F)c(-n2ncc(C)c2Cl)cc(Cl)c1=O [Compound 507]
Test C control value (Alternaria sooty spot on cabbage) (Alternaia brassicicola): H (H shows the control value more than 50%)
Test G control value (downy mildew on vine) (Plasmopara viticola): H (H shows the control value more than 50%)

O=c1ccc(-n2cc(Cl)cn2)c(-c2ccccc2Br)n1CC(F)F [Compound 289]
control value, Test E (brown rust on wheat) (Puccinia recondita): H (H shows the control value more than 50%)
control value, Test D (powdery mildew on barley) [1]: H (H shows the control value more than 50%)
control value, Test C (Alternaria sooty spot on cabbage) (Alternaia brassicicola): H (H shows the control value more than 50%)
control value, Test G (downy mildew on vine) (Plasmopara viticola): L (L shows the control value of 50% or less)
